± gives the standard deviation of the averaged measurements. Some of the results follow.
test system: PfAP2-EXP AP2 domain (GST-tagged); test: gcPBM binding intensity (ln(normalized median fluorescence intensity)); higher = stronger DNA binding
Method in brief: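 The highest Masliner-normalised natural-log median intensity across replicate spots of either probe orientation is reported as binding intensity. GST-tagged P. falciparum DNA-binding domains expressed in E. coli were applied for 1 h to an Agilent 4 × 180k array of primer-extended double-stranded 36-bp intergenic genomic probes plus negative controls, and bound protein was detected with Alexa488 anti-GST antibody and scanned at 488 nm.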

Q: How did the “gcPBM binding intensity (ln)” value turn out when “TAGTATTTATATGTTATATATATAAAATAATACAGT [XGTACX_negctrl_site571]” was run?
A: The value was 8.56 ± 0.47.

Q: Which “gcPBM binding intensity (ln)” value does the source give for “TATATAGAATTATATGCATGTTCAAAAAAATACAAC [TGCATGCA_site431]” here?
A: Its value is 8.72 ± 0.18.

Q: “ATATCTAATAAAAATACACACACATATGATTTGTGA [CACACA_site8558]” was tested. Which “gcPBM binding intensity (ln)” value did it give?
A: The value was 8.1 ± 0.4.

Q: Which “gcPBM binding intensity (ln)” value does the source give for “ATATAAATATATATATGTACATAATATATTATGTTT [XGTACX_site2806]” here?
A: The value was 8.48 ± 0.35.

Q: For “AATTTAACCACTAAAAGTACACACATATATACATAT [XGTACX_site8352]”, which “gcPBM binding intensity (ln)” value is on record?
A: The value was 8.675 ± 0.064.

Q: Which “gcPBM binding intensity (ln)” value does the source give for “GGACACCTTCAAAACACACATACAAATAAATAGAAA [CACACA_site3305]” here?
A: The value was 8.74 ± 0.45.

Q: How did the “gcPBM binding intensity (ln)” value turn out when “AGGATAATATACAAAAGTACATAAAACTAAAAAAAC [XGTACX_site605]” was run?
A: The value was 9.01 ± 0.24.

Q: Which “gcPBM binding intensity (ln)” value does the source give for “AACATATATTTTGAAACACACACATATATAATATAC [CACACA_site8301]” here?
A: Its value is 8.74 ± 0.42.

Q: With “AAAGAAAGAAAGAATACACACACACCGATATATATA [CACACA_site9246]” as the sequence, how does the “gcPBM binding intensity (ln)” value read?
A: Its value is 8.88 ± 0.45.

Q: How did the “gcPBM binding intensity (ln)” value turn out when “TCCTTTTTACTACTAGTGCATTATTTACAAGGTCCG [GTGCAC_site9441]” was run?
A: The value was 8.995 ± 0.049.

Q: Which “gcPBM binding intensity (ln)” value does the source give for “AATGTGTATATATATACACACACATATATATATTTT [CACACA_site8596]” here?
A: Its value is 8.61 ± 0.43.

Q: For “ATATATATAAAATATTATATTAAAAAAAATAAAATA [GTGCAC_negctrl_site87]”, which “gcPBM binding intensity (ln)” value is on record?
A: The value was 8.15 ± 0.45.

Q: How did the “gcPBM binding intensity (ln)” value turn out when “TAGTTTTTTATATATTGTACTTAGAATATATTATAT [XGTACX_site3662]” was run?
A: Its value is 8.37 ± 0.33.

Q: With “TTTTTAATTTACTGTCATAGGTACCTTAACTTATCA [CACACA_negctrl_site1664]” as the sequence, how does the “gcPBM binding intensity (ln)” value read?
A: The value was 8.72 ± 0.49.

Q: “TGAATAAAGAAACACACACACATATATATATATGTA [CACACA_site17]” was tested. Which “gcPBM binding intensity (ln)” value did it give?
A: The value was 8.52 ± 0.44.

Q: Which “gcPBM binding intensity (ln)” value does the source give for “TATTAATAATTTTCATGTACATATGTATTTGTAATA [XGTACX_site858]” here?
A: Its value is 8.55 ± 0.31.

Q: “ATATAATAAATGTCATGTACATACAACATTTTAACT [XGTACX_site7517]” was tested. Which “gcPBM binding intensity (ln)” value did it give?
A: The value was 8.43 ± 0.35.

Q: Which “gcPBM binding intensity (ln)” value does the source give for “TACATATACATATTGTGTACATAATAATTATTTATA [XGTACX_site7884]” here?
A: Its value is 8.53 ± 0.32.

Q: How did the “gcPBM binding intensity (ln)” value turn out when “TACTTATGTTCGCACACATGCAAATTAAAAAAAAAA [TGCATGCA_site1023]” was run?
A: The value was 8.69 ± 0.42.

Q: How did the “gcPBM binding intensity (ln)” value turn out when “TTAATTAAGAAACACACACACATATATATATATATT [CACACA_site2290]” was run?
A: The value was 8.67 ± 0.42.

Q: For “TTATATATATGACTTTGTACATATACATATTTTTTA [XGTACX_site4669]”, which “gcPBM binding intensity (ln)” value is on record?
A: The value was 8.21 ± 0.39.

Q: With “GTATATTTTATTTTATGTACATATTCATTTTTTATT [XGTACX_site561]” as the sequence, how does the “gcPBM binding intensity (ln)” value read?
A: Its value is 9.18 ± 0.28.

Q: How did the “gcPBM binding intensity (ln)” value turn out when “TCTCTTTTTCGTTCATGTACAAATAAATAAAAATAT [XGTACX_site6558]” was run?
A: The value was 8.69 ± 0.31.

Q: “TATTATATATATGCACGTACAAAAATAATAAAGGTA [XGTACX_site3506]” was tested. Which “gcPBM binding intensity (ln)” value did it give?
A: The value was 8.98 ± 0.16.

Q: How did the “gcPBM binding intensity (ln)” value turn out when “GTGGATATATGTATATGTACATATGTATGTATATAT [XGTACX_site2412]” was run?
A: Its value is 8.74 ± 0.43.

Q: Which “gcPBM binding intensity (ln)” value does the source give for “ATTTTTTTACTGGATCCATATTTGCTTTTTTATTTA [CACACA_negctrl_site1108]” here?
A: Its value is 9.11 ± 0.53.

Q: “TTTAAAATTTAATTTTGTACATATACCAATTTTATT [XGTACX_site448]” was tested. Which “gcPBM binding intensity (ln)” value did it give?
A: The value was 8.16 ± 0.057.

Q: “ATATAAATATGAAAAAGTACAAGCCATCAAGAAATC [XGTACX_site8140]” was tested. Which “gcPBM binding intensity (ln)” value did it give?
A: The value was 8.82 ± 0.46.

Q: “ATATAATGTTAGGGTAGAGGAAGTAACTAATATAAA [CACACA_negctrl_site1153]” was tested. Which “gcPBM binding intensity (ln)” value did it give?
A: Its value is 8.74 ± 0.49.

Q: “AATTTTTTATTCTTTGCATGTCATCATATATAATAT [TGCATGCA_site549]” was tested. Which “gcPBM binding intensity (ln)” value did it give?
A: Its value is 9.15 ± 0.35.

Q: With “ATATAATATATGTTATGTACATAGTTTTTATTGTTC [XGTACX_site7438]” as the sequence, how does the “gcPBM binding intensity (ln)” value read?
A: Its value is 8.57 ± 0.28.

Q: “AATATATAATCAGATGAATTTTTTTTTTTTTTTTCA [CACACA_negctrl_site534]” was tested. Which “gcPBM binding intensity (ln)” value did it give?
A: Its value is 7.93 ± 0.49.

Q: Which “gcPBM binding intensity (ln)” value does the source give for “AATTAGCATAAATGGGTGCTACACAAAAATGCATGT [GTGCAC_site9640]” here?
A: Its value is 8.91 ± 0.33.

Q: “TATAAATATTATAATTGTACATATTATAAAAATTTT [XGTACX_site2719]” was tested. Which “gcPBM binding intensity (ln)” value did it give?
A: Its value is 8.32 ± 0.39.

Q: Which “gcPBM binding intensity (ln)” value does the source give for “TGTGTATAAAAAAAGTGTACACAAAGTAAGACTTTA [XGTACX_site3759]” here?
A: The value was 8.84 ± 0.33.

Q: For “AGCAACTAAAAAGGATACCCCATTAAAAAAAAATTA [XGTACX_negctrl_site489]”, which “gcPBM binding intensity (ln)” value is on record?
A: Its value is 8.35 ± 0.55.

Q: Which “gcPBM binding intensity (ln)” value does the source give for “TACCAAAAAACGGCACGCATATGTATAAGAATATGT [XGTACX_negctrl_site470]” here?
A: The value was 8.79 ± 0.67.

Q: With “AAATATATAAAAGTATGTACATATGAAAAATATATA [XGTACX_site6165]” as the sequence, how does the “gcPBM binding intensity (ln)” value read?
A: The value was 8.94 ± 0.42.

Q: Which “gcPBM binding intensity (ln)” value does the source give for “TTATAAAGAATTAGGAGTACAAATGCATATATAATA [XGTACX_site6580]” here?
A: Its value is 8.9 ± 0.42.

Q: Which “gcPBM binding intensity (ln)” value does the source give for “TTATATAACATAACGATGTTTCAAAACATATTGTAT [CACACA_negctrl_site997]” here?
A: The value was 8.44 ± 0.52.

Q: With “ATTTTTTTGTATATATATGACTGGGGATATAATCAA [GTGCAC_negctrl_site274]” as the sequence, how does the “gcPBM binding intensity (ln)” value read?
A: The value was 8.77 ± 0.6.

Q: “ATGAAAAAAAAAAAAAAAAAAAAAAAAAAAAAAATA [CACACA_negctrl_site1083]” was tested. Which “gcPBM binding intensity (ln)” value did it give?
A: Its value is 7.89 ± 0.54.

Q: With “TATAAAAAAAAAAAAAAAAAAAAAAATATATATATA [CACACA_negctrl_site817]” as the sequence, how does the “gcPBM binding intensity (ln)” value read?
A: Its value is 9.74 ± 0.25.

Q: Which “gcPBM binding intensity (ln)” value does the source give for “TATTATTTTTCATATGCATGCAAAAATAAAAAAATA [TGCATGCA_site350]” here?
A: Its value is 9.63 ± 0.35.

Q: How did the “gcPBM binding intensity (ln)” value turn out when “AAAAAAAAAAAAAATTGTACTTAAATATATATATAT [XGTACX_site7604]” was run?
A: The value was 9.9 ± 0.45.

Q: Which “gcPBM binding intensity (ln)” value does the source give for “AAATTAAAATAAAATAGTACATATATTTATATTTTT [XGTACX_site1687]” here?
A: Its value is 8.16 ± 0.14.

Q: How did the “gcPBM binding intensity (ln)” value turn out when “ACATACATATATTTATGTACATATATATTTATGATT [XGTACX_site6485]” was run?
A: The value was 8.55 ± 0.33.

Q: With “AAAAAAAGATTATACACACACATATATAAACATACA [CACACA_site4553]” as the sequence, how does the “gcPBM binding intensity (ln)” value read?
A: Its value is 8.55 ± 0.61.

Q: For “AATTTATATTTATGTGCATGTAATAACTGTATATAA [TGCATGCA_site349]”, which “gcPBM binding intensity (ln)” value is on record?
A: Its value is 8.75 ± 0.2.

Q: With “TTTTGGTGTATAGTATTAATATAAAATAATTATATT [CACACA_negctrl_site47]” as the sequence, how does the “gcPBM binding intensity (ln)” value read?
A: The value was 8.45 ± 0.35.

Q: With “ATTTTTTTTTCTTGTACACACTATTTTATAATTTTA [CACACA_site6102]” as the sequence, how does the “gcPBM binding intensity (ln)” value read?
A: The value was 9.16 ± 0.44.

Q: How did the “gcPBM binding intensity (ln)” value turn out when “TAAACATTCTTATATAGTACCCATATTAAAATATAC [XGTACX_site8014]” was run?
A: Its value is 8.38 ± 0.28.

Q: For “TTAGCTTATCATTACTGTACTTTATTCATATATATG [XGTACX_site8008]”, which “gcPBM binding intensity (ln)” value is on record?
A: The value was 8.91 ± 0.43.

Q: “ATAAGCATACATATTACACACATATAATATATATAT [CACACA_site2487]” was tested. Which “gcPBM binding intensity (ln)” value did it give?
A: The value was 9.17 ± 0.085.

Q: Which “gcPBM binding intensity (ln)” value does the source give for “TACATATATATATATGAACACACAAAAAGAATATTT [CACACA_site8421]” here?
A: The value was 8.72 ± 0.68.
